The test system of one assay is HSkMC. In words: cytotoxicity call (relative viability < 0.9). Particulars: 10 µM.
The test system of a further assay is HepG2. The assay is described as follows: cytotoxicity call (relative viability < 0.9). To be noted: 10 µM.
A further assay concerns S. aureus RN4220. In words: growth inhibition call (relative growth <= 0.2). To be noted: 50 µM.

The list shows a part of the results.

We go through 28 compounds from the antibiotic and cytotoxicity screens of Wong et al. (2023).

Consider `C[C@@H]1CN([C@H](C)CO)C(=O)Cc2cc(NS(C)(=O)=O)ccc2O[C@@H]1CN(C)S(=O)(=O)c1ccccc1`, for which the cytotoxicity call in the assay on HSkMC and in the assay on HepG2 was “inactive” throughout. Moreover, in the assay on S. aureus RN4220, the growth inhibition call is “inactive”.
`C[C@@H]1CN([C@@H](C)CO)C(=O)Cc2cc(NC(=O)Nc3ccc(F)cc3)ccc2O[C@H]1CN(C)Cc1ccc(Oc2ccccc2)cc1`: the cytotoxicity call in the assay with HSkMC was “inactive”. Moreover, in the assay on HepG2, the cytotoxicity call is “active”. Besides, the growth inhibition call in the assay with S. aureus RN4220 is “inactive”.
Turning to `CCOc1ccc(C(C)(C)N)cc1`, the cytotoxicity call in the assay on HSkMC and in the assay with HepG2 was “inactive” each time. Also, the growth inhibition call with S. aureus RN4220 was “inactive”.
On to `Nc1nc(=O)c2c([nH]1)NC[C@H](CNc1ccc(C(=O)N[C@@H](CCC(=O)O)C(=O)O)cc1)N2C=O`, for which the cytotoxicity call in the assay with HSkMC and in the assay on HepG2 was “inactive” each time. For the same compound, the growth inhibition call with S. aureus RN4220 is “inactive”.
Regarding `CNC[C@@H]1OCCCC[C@@H](C)Oc2ccc(NS(=O)(=O)c3c(C)noc3C)cc2C(=O)N([C@H](C)CO)C[C@@H]1C`, the cytotoxicity call in the assay on HSkMC and in the assay with HepG2 was “inactive” each time. The growth inhibition call in the assay on S. aureus RN4220 is “inactive”.
Turning to `C[C@H](CO)N1C[C@H](C)[C@H](CN(C)Cc2ccc(C(F)(F)F)cc2)Oc2ccc(NC(=O)Nc3cccc4ccccc34)cc2CC1=O`, the cytotoxicity call in the assay on HSkMC and in the assay with HepG2 was “inactive” each time. Moreover, the growth inhibition call with S. aureus RN4220 is “inactive”.
Consider `COc1ccc(S(=O)(=O)N(C)C[C@H]2Oc3ccc(NS(=O)(=O)c4ccccc4)cc3C(=O)N([C@@H](C)CO)C[C@H]2C)cc1`, for which the cytotoxicity call in the assay on HSkMC and in the assay on HepG2 was “inactive” throughout. For the same compound, the growth inhibition call in the assay on S. aureus RN4220 was “inactive”.
On to `Oc1cccc(-c2nc3ccc4ccccc4c3c3c2CCC3)c1`, for which the cytotoxicity call with HSkMC and in the assay on HepG2 was “inactive” throughout. The growth inhibition call in the assay with S. aureus RN4220 is “inactive”.
`CC(=O)NCC(=O)OCC(=O)c1ccccc1`: the cytotoxicity call with HSkMC and in the assay with HepG2 was “inactive” throughout. Besides, in the assay with S. aureus RN4220, the growth inhibition call was “inactive”.
Take `C[C@@H]1[C@@H](O)[C@@H](N(C)C)C[C@H]2COC[C@@H]21`: the cytotoxicity call in the assay on HSkMC and with HepG2 was “inactive” throughout. Moreover, the growth inhibition call with S. aureus RN4220 is “inactive”.
As to `O=C(C[C@@H]1CC=CC[C@H](NC(=O)OCC2c3ccccc3-c3ccccc32)C(=O)OC[C@@H](Cc2c[nH]c3ccccc23)NC1=O)N[C@H](CO)Cc1ccccc1`, the cytotoxicity call with HSkMC and with HepG2 was “inactive” in each case. In addition, in the assay with S. aureus RN4220, the growth inhibition call is “inactive”.
With `CC(=O)c1ccccc1OC[C@@H](O)CN(CCO)CCO`, the cytotoxicity call with HSkMC and in the assay on HepG2 was “inactive” in each case. In the assay on S. aureus RN4220, the growth inhibition call was “inactive”.
As for `C=CCN([C@@H](Cc1ccccc1)[C@@H](O)c1cn(CCCCCCNC(=O)C(=O)NC)nn1)S(=O)(=O)c1ccccc1[N+](=O)[O-]`, the cytotoxicity call in the assay with HSkMC and with HepG2 was “inactive” throughout. Besides, the growth inhibition call in the assay on S. aureus RN4220 was “inactive”.
Turning to `O=C(C[C@H]1C=C[C@@H](NC(=O)c2cnccn2)[C@H](CO)O1)NCc1ccccc1F`, the cytotoxicity call with HSkMC and in the assay on HepG2 was “inactive” each time. Moreover, in the assay on S. aureus RN4220, the growth inhibition call was “inactive”.
Turning to `C[C@H](CO)N1C[C@H](C)[C@H](CN(C)C(=O)Nc2ccc(C(F)(F)F)cc2)Oc2ccc(NC(=O)Nc3ccc(F)cc3)cc2C1=O`, the cytotoxicity call with HSkMC was “active”. In the assay with HepG2, the cytotoxicity call is “inactive”. Also, the growth inhibition call in the assay with S. aureus RN4220 was “inactive”.
`O=C1[C@H](Cc2ccc(C(F)(F)F)cc2)CCn2cc(nn2)COC[C@@H]2CCCCN2C(=O)[C@H](Cc2ccc(C(F)(F)F)cc2)CCn2cc(nn2)COC[C@@H]2CCCCN12`: the cytotoxicity call in the assay on HSkMC and in the assay with HepG2 was “inactive” throughout. In addition, in the assay on S. aureus RN4220, the growth inhibition call is “inactive”.
In the case of `C[C@H]1CN([C@@H](C)CO)C(=O)Cc2cc(NS(=O)(=O)c3ccc(Cl)cc3)ccc2O[C@@H]1CN(C)Cc1ccc(-c2ccccc2)cc1`, the cytotoxicity call with HSkMC and with HepG2 was “inactive” each time. Besides, the growth inhibition call in the assay with S. aureus RN4220 is “inactive”.
In the case of `Oc1ccc(Cl)c2cccnc12`, the cytotoxicity call in the assay with HSkMC and with HepG2 was “active” each time. In the assay on S. aureus RN4220, the growth inhibition call is “inactive”.
In the case of `Cc1noc(C)c1NC(=O)N(C)C[C@H]1Oc2c(NC(=O)Nc3ccc(C(F)(F)F)cc3)cccc2C(=O)N([C@@H](C)CO)C[C@@H]1C`, the cytotoxicity call with HSkMC and with HepG2 was “inactive” each time. Besides, the growth inhibition call with S. aureus RN4220 is “inactive”.
On to `COCC(=O)N1C[C@@H](C)[C@H](OC)CN(C)C(=O)c2cc(NC(=O)Nc3cccc(F)c3)ccc2OC[C@H]1C`, for which the cytotoxicity call with HSkMC and in the assay with HepG2 was “inactive” throughout. The growth inhibition call in the assay on S. aureus RN4220 was “inactive”.
Regarding `COc1ccc(NC(=O)Nc2ccc3c(c2)C(=O)N([C@@H](C)CO)C[C@H](C)[C@H](CN(C)Cc2ccc(C(F)(F)F)cc2)OCCCC[C@H](C)O3)cc1`, in the assay on HSkMC (human skeletal muscle cells), the cytotoxicity call was “inactive”. Also, the cytotoxicity call in the assay with HepG2 was “active”. Also, in the assay on S. aureus RN4220, the growth inhibition call is “inactive”.
Consider `COc1ccc(NC(=O)Nc2ccc3c(c2)C(=O)N([C@@H](C)CO)C[C@@H](C)[C@H](CN(C)S(=O)(=O)c2cccs2)OCCCC[C@H](C)O3)cc1`, for which the cytotoxicity call in the assay with HSkMC and in the assay with HepG2 was “inactive” throughout. Further, the growth inhibition call with S. aureus RN4220 is “inactive”.
`CC[C@@H](O)C[C@H]1CC[C@H]([C@@H](C)C(=O)O[C@@H](C)C[C@H]2CC[C@H]([C@@H](C)C(=O)O[C@@H](C)C[C@H]3CC[C@H]([C@@H](C)C(=O)O[C@@H](C)C[C@H]4CC[C@H]([C@@H](C)C(=O)O)O4)O3)O2)O1`: in the assay with HSkMC, the cytotoxicity call was “inactive”. In the assay with HepG2, the cytotoxicity call is “active”. Besides, the growth inhibition call in the assay with S. aureus RN4220 is “inactive”.
On to `CCn1cc(C(=O)O)c(=O)c2cc(F)c(N3CCNC(C)C3)c(F)c21.Cl` (centres undefined), for which the cytotoxicity call in the assay with HSkMC and with HepG2 was “inactive” throughout. Further, the growth inhibition call in the assay on S. aureus RN4220 is “active”.
For `O=C(C[C@@H]1CC[C@@H]2[C@H](COC[C@@H](O)CN2S(=O)(=O)c2ccccc2)O1)N[C@@H]1CCN(Cc2ccccc2)C1`, the cytotoxicity call with HSkMC and in the assay on HepG2 was “inactive” throughout. In the assay on S. aureus RN4220, the growth inhibition call is “inactive”.
For the compound `COc1ccc(S(=O)(=O)N(C)C[C@H]2OCCCC[C@H](C)Oc3ccc(NC(=O)c4ccccc4)cc3C(=O)N([C@H](C)CO)C[C@@H]2C)cc1`, the cytotoxicity call with HSkMC and with HepG2 was “inactive” each time. For the same compound, the growth inhibition call in the assay on S. aureus RN4220 was “inactive”.
For the compound `COc1ccccc1-c1ccc2c(c1)O[C@H](CN(C)C(=O)c1ccncc1)[C@H](C)CN([C@@H](C)CO)S2(=O)=O`, the cytotoxicity call in the assay with HSkMC and with HepG2 was “inactive” in each case. The growth inhibition call in the assay on S. aureus RN4220 was “inactive”.
For `COc1ccc(NC(=O)N(C)C[C@H]2Oc3ccc(NS(=O)(=O)c4cn(C)cn4)cc3CC(=O)N([C@H](C)CO)C[C@H]2C)cc1`, the cytotoxicity call in the assay with HSkMC and in the assay on HepG2 was “inactive” throughout. In addition, the growth inhibition call with S. aureus RN4220 was “inactive”.
